{"source": "the supplement of paper PMC8728848", "binders": {"B1": {"name": "PX9937B-bvu-524-33-524 (Bacteroides vulgatus) (protein)", "chain": "GTAYWKNPDQFTAFNTGLHALLREKSYNFFLLGEPRADIYGDNPIGGEASQGMERLPFNTINKENVGISNYGDMYKIINQINQMIAKTTETTILTEATQNYYLGEAYGMRAYLYFHLLRSWGDVVLYLDYTEGQNLDLSNITKGVSPATEVMEQIKKDIQASENAFGSDYSFKLGRHFWSAAATQMLKGEAYLWSGRQMNGGNSDYTIAKNAFENVKKADVGLVTSSFKDIFSFENKKNKEMIFTIHNGKDEYEMWGGYYRMRLIPAQDKMVKIYCDENGNSFVGTPDAQLNGLTQLQVRREFYFKGFRNNDTRWTTSLKAVYKKDAQGVVSYFGPITYKFQGTMLEGGSTRSFLDDFPIYRYADCLLQLAMAKVLLGEDPTEEINAVRERAYGSKYFNEHKAEIAYPNDNDPEFYTDNKWMKPDNAGALEAILKERLREFMFEGKRWYDIRLLGWDYVHQYSSAEQSRLLWPIDAGTLTNNSALKQTPGYE"}}, "experiment_in_all_cases": "glycan array binding signal (z-score within array); higher = stronger binding", "settings_in_all_cases": "glycan notation: IUPAC condensed, linker removed", "key": {"[1]": {"target": "Neu5Ac(a2-3)Gal(b1-4)GlcNAc(b1-2)[Neu5Ac(a2-3)Gal(b1-4)GlcNAc(b1-4)]Man(a1-3)[GlcNAc(b1-4)][Neu5Ac(a2-3)Gal(b1-4)GlcNAc(b1-4)Man(a1-6)]Man(b1-4)GlcNAc(b1-4)GlcNAc", "how_it_was_run": "(§1)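 Glycan array binding is given as a within-array Z-score, which can be read as non-binding when negative. The arrays, 3228 of them, came from the Consortium for Functional Glycomics database and were retained only where the protein sequence was available. Z-scores were averaged across arrays of the same protein sequence at different concentrations or buffers and across linkers.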"}, "[2]": {"target": "Neu5Ac(a2-3)Gal(b1-4)GlcNAc(b1-2)[Neu5Ac(a2-3)Gal(b1-4)GlcNAc(b1-6)]Man(a1-6)[Neu5Ac(a2-3)Gal(b1-4)GlcNAc(b1-2)Man(a1-3)]Man(b1-4)GlcNAc(b1-4)GlcNAc", "how_it_was_run": "as §1"}, "[3]": {"target": "Neu5Ac(a2-3)Gal(b1-4)GlcNAc(b1-2)[Neu5Ac(a2-3)Gal(b1-4)GlcNAc(b1-6)]Man(a1-6)[Neu5Ac(a2-3)Gal(b1-4)GlcNAc(b1-2)Man(a1-3)][GlcNAc(b1-4)]Man(b1-4)GlcNAc(b1-4)GlcNAc", "how_it_was_run": "as §1"}, "[4]": {"target": "Neu5Ac(a2-3)Gal(b1-4)GlcNAc(b1-3)Gal", "how_it_was_run": "as §1"}, "[5]": {"target": "Neu5Ac(a2-3)Gal(b1-4)GlcNAc(b1-3)Gal(b1-3)GlcNAc", "how_it_was_run": "as §1"}, "[6]": {"target": "Neu5Ac(a2-3)Gal(b1-4)GlcNAc(b1-3)Gal(b1-4)GlcNAc", "how_it_was_run": "as §1"}, "[7]": {"target": "Neu5Ac(a2-3)Gal(b1-4)GlcNAc(b1-3)Gal(b1-4)GlcNAc(b1-2)Man(a1-3)[Neu5Ac(a2-3)Gal(b1-4)GlcNAc(b1-3)Gal(b1-4)GlcNAc(b1-2)Man(a1-6)]Man(b1-4)GlcNAc(b1-4)GlcNAc", "how_it_was_run": "as §1"}, "[8]": {"target": "Neu5Ac(a2-3)Gal(b1-4)GlcNAc(b1-3)Gal(b1-4)GlcNAc(b1-3)Gal(b1-4)GlcNAc", "how_it_was_run": "as §1"}, "[9]": {"target": "Neu5Ac(a2-3)Gal(b1-4)GlcNAc(b1-3)Gal(b1-4)GlcNAc(b1-3)Gal(b1-4)GlcNAc(b1-2)Man(a1-3)[Neu5Ac(a2-3)Gal(b1-4)GlcNAc(b1-3)Gal(b1-4)GlcNAc(b1-3)Gal(b1-4)GlcNAc(b1-2)Man(a1-6)]GalNAc", "how_it_was_run": "as §1"}, "[10]": {"target": "Neu5Ac(a2-3)Gal(b1-4)GlcNAc(b1-3)Gal(b1-4)GlcNAc(b1-3)GalNAc", "how_it_was_run": "as §1"}, "[11]": {"target": "Neu5Ac(a2-3)Gal(b1-4)GlcNAc(b1-3)Gal(b1-4)GlcNAc(b1-3)[Neu5Ac(a2-3)Gal(b1-4)GlcNAc(b1-3)Gal(b1-4)GlcNAc(b1-6)]GalNAc", "how_it_was_run": "as §1"}, "[12]": {"target": "Neu5Ac(a2-3)Gal(b1-4)GlcNAc(b1-3)Gal(b1-4)GlcNAc(b1-6)[Gal(b1-3)]GalNAc", "how_it_was_run": "as §1"}, "[13]": {"target": "Neu5Ac(a2-3)Gal(b1-4)GlcNAc(b1-3)Gal(b1-4)[Fuc(a1-3)]GlcNAc", "how_it_was_run": "as §1"}, "[14]": {"target": "Neu5Ac(a2-3)Gal(b1-4)GlcNAc(b1-3)GalNAc", "how_it_was_run": "as §1"}, "[15]": {"target": "Neu5Ac(a2-3)Gal(b1-4)GlcNAc(b1-3)[Neu5Ac(a2-3)Gal(b1-4)GlcNAc(b1-6)]GalNAc", "how_it_was_run": "as §1"}, "[16]": {"target": "Neu5Ac(a2-3)Gal(b1-4)GlcNAc(b1-6)GalNAc", "how_it_was_run": "as §1"}, "[17]": {"target": "Neu5Ac(a2-3)Gal(b1-4)GlcNAc(b1-6)[Gal(b1-3)]GalNAc", "how_it_was_run": "as §1"}, "[18]": {"target": "Neu5Ac(a2-3)Gal(b1-4)GlcNAc(b1-6)[Neu5Ac(a2-3)Gal(b1-3)]GalNAc", "how_it_was_run": "as §1"}, "[19]": {"target": "Neu5Ac(a2-3)Gal(b1-4)GlcNAc6S", "how_it_was_run": "as §1"}, "[20]": {"target": "Neu5Ac(a2-3)Gal(b1-4)[Fuc(a1-3)]GlcNAc", "how_it_was_run": "as §1"}, "[21]": {"target": "Neu5Ac(a2-3)Gal(b1-4)[Fuc(a1-3)]GlcNAc(b1-2)Man", "how_it_was_run": "as §1"}, "[22]": {"target": "Neu5Ac(a2-3)Gal(b1-4)[Fuc(a1-3)]GlcNAc(b1-3)Gal", "how_it_was_run": "as §1"}, "[23]": {"target": "Neu5Ac(a2-3)Gal(b1-4)[Fuc(a1-3)]GlcNAc(b1-3)Gal(b1-4)GlcNAc", "how_it_was_run": "as §1"}, "[24]": {"target": "Neu5Ac(a2-3)Gal(b1-4)[Fuc(a1-3)]GlcNAc(b1-3)Gal(b1-4)[Fuc(a1-3)]GlcNAc(b1-3)Gal(b1-4)[Fuc(a1-3)]GlcNAc", "how_it_was_run": "as §1"}, "[25]": {"target": "Neu5Ac(a2-3)Gal(b1-4)[Fuc(a1-3)]GlcNAc(b1-3)GalNAc", "how_it_was_run": "as §1"}, "[26]": {"target": "Neu5Ac(a2-3)Gal(b1-4)[Fuc(a1-3)]GlcNAc(b1-6)[Gal(b1-3)]GalNAc", "how_it_was_run": "as §1"}, "[27]": {"target": "Neu5Ac(a2-3)Gal(b1-4)[Fuc(a1-3)]GlcNAc(b1-6)[Neu5Ac(a2-3)Gal(b1-3)]GalNAc", "how_it_was_run": "as §1"}, "[28]": {"target": "Neu5Ac(a2-3)Gal(b1-4)[Fuc(a1-3)]GlcNAc6S", "how_it_was_run": "as §1"}, "[29]": {"target": "Neu5Ac(a2-3)Gal6S(b1-4)GlcNAc", "how_it_was_run": "as §1"}, "[30]": {"target": "Neu5Ac(a2-3)Gal6S(b1-4)[Fuc(a1-3)]GlcNAc", "how_it_was_run": "as §1"}, "Neu5Ac(a2-3)GalNAc": {"target": "Neu5Ac(a2-3)GalNAc", "how_it_was_run": "as §1"}, "[31]": {"target": "Neu5Ac(a2-3)GalNAc(b1-4)GlcNAc", "how_it_was_run": "as §1"}, "[32]": {"target": "Neu5Ac(a2-3)[GalNAc(b1-4)]Gal(b1-4)Glc", "how_it_was_run": "as §1"}, "[33]": {"target": "Neu5Ac(a2-3)[GalNAc(b1-4)]Gal(b1-4)GlcNAc", "how_it_was_run": "as §1"}, "[34]": {"target": "Neu5Ac(a2-3)[GalNAc(b1-4)]Gal(b1-4)GlcNAc(b1-3)GalNAc", "how_it_was_run": "as §1"}, "[35]": {"target": "Neu5Ac(a2-3)[Neu5Ac(a2-6)]GalNAc", "how_it_was_run": "as §1"}, "Neu5Ac(a2-6)Gal": {"target": "Neu5Ac(a2-6)Gal", "how_it_was_run": "as §1"}}, "note": "This is one part of the list."}
{"binder": "B1", "values": [{"measurement": "glycan array binding signal (z-score)", "setting": "[1]", "value": 0.089}, {"measurement": "glycan array binding signal (z-score)", "setting": "[2]", "value": -0.104}, {"measurement": "glycan array binding signal (z-score)", "setting": "[3]", "value": -0.111}, {"measurement": "glycan array binding signal (z-score)", "setting": "[4]", "value": -0.272}, {"measurement": "glycan array binding signal (z-score)", "setting": "[5]", "value": -0.154}, {"measurement": "glycan array binding signal (z-score)", "setting": "[6]", "value": 0}, {"measurement": "glycan array binding signal (z-score)", "setting": "[7]", "value": 1.55}, {"measurement": "glycan array binding signal (z-score)", "setting": "[8]", "value": 0.754}, {"measurement": "glycan array binding signal (z-score)", "setting": "[9]", "value": 0.005}, {"measurement": "glycan array binding signal (z-score)", "setting": "[10]", "value": -0.354}, {"measurement": "glycan array binding signal (z-score)", "setting": "[11]", "value": 0.257}, {"measurement": "glycan array binding signal (z-score)", "setting": "[12]", "value": 0.028}, {"measurement": "glycan array binding signal (z-score)", "setting": "[13]", "value": 0.162}, {"measurement": "glycan array binding signal (z-score)", "setting": "[14]", "value": -0.227}, {"measurement": "glycan array binding signal (z-score)", "setting": "[15]", "value": -0.349}, {"measurement": "glycan array binding signal (z-score)", "setting": "[16]", "value": -0.41}, {"measurement": "glycan array binding signal (z-score)", "setting": "[17]", "value": -0.473}, {"measurement": "glycan array binding signal (z-score)", "setting": "[18]", "value": 0.153}, {"measurement": "glycan array binding signal (z-score)", "setting": "[19]", "value": -0.119}, {"measurement": "glycan array binding signal (z-score)", "setting": "[20]", "value": -0.354}, {"measurement": "glycan array binding signal (z-score)", "setting": "[21]", "value": -0.222}, {"measurement": "glycan array binding signal (z-score)", "setting": "[22]", "value": -0.359}, {"measurement": "glycan array binding signal (z-score)", "setting": "[23]", "value": -0.165}, {"measurement": "glycan array binding signal (z-score)", "setting": "[24]", "value": -0.366}, {"measurement": "glycan array binding signal (z-score)", "setting": "[25]", "value": 0.447}, {"measurement": "glycan array binding signal (z-score)", "setting": "[26]", "value": -0.094}, {"measurement": "glycan array binding signal (z-score)", "setting": "[27]", "value": 0.874}, {"measurement": "glycan array binding signal (z-score)", "setting": "[28]", "value": 0.116}, {"measurement": "glycan array binding signal (z-score)", "setting": "[29]", "value": -0.189}, {"measurement": "glycan array binding signal (z-score)", "setting": "[30]", "value": -0.366}, {"measurement": "glycan array binding signal (z-score)", "setting": "Neu5Ac(a2-3)GalNAc", "value": -0.139}, {"measurement": "glycan array binding signal (z-score)", "setting": "[31]", "value": -0.221}, {"measurement": "glycan array binding signal (z-score)", "setting": "[32]", "value": -0.44}, {"measurement": "glycan array binding signal (z-score)", "setting": "[33]", "value": -0.08}, {"measurement": "glycan array binding signal (z-score)", "setting": "[34]", "value": 1.38}, {"measurement": "glycan array binding signal (z-score)", "setting": "[35]", "value": -0.279}, {"measurement": "glycan array binding signal (z-score)", "setting": "Neu5Ac(a2-6)Gal", "value": -0.383}]}
